From PubChem BioAssay (Tox21) come the findings set out here.

Results filed as inconclusive are left out. Calls come from the whole dose curve; as a rule, active = well fitted inhibition curve with a large enough effect in the repeat runs; inconclusive = weak or mixed curves; inactive = no such curve, though single readings can be large or run the other way. More than one record can exist for a structure, and the calls need not agree. Certain results were filed several times, with different values. This is not the full list of results. The source may hold further records. Results that share an entry are repeats (runs, samples, wells, individuals or studies). What stands in brackets tells the records apart. A, B and so on number the origins entry by entry.
Potency is the fitted concentration of half-maximal effect.

This test is described as follows: qHTS assay to identify small molecule antagonists of the thyroid receptor (TR) signaling pathway (AID 743065). Note: nearly all actives have a fitted effect of over 55% in size. The settings on record: GH3.TRE-Luc, T3-stimulated luciferase inhibition, 23.5 h; series mostly up to 70.3 µM. The procedure, abridged: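 Antagonism measured as loss of luciferase signal in GH3 cells stably carrying a TRE-luciferase reporter, co-treated with compound and T3 (1 nM final) for 23.5 h at 37 C. Viability was read in the same well by CellTiter-Fluor.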
On to `CC(C)(C)c1ccc(C(O)CCCN2CCC(C(O)(c3ccccc3)c3ccccc3)CC2)cc1` (centres undefined), for which the Potency entry was “inactive [sample A] and active: 5.96 µM [sample B]”.
Next, `CCCCC/C=C\C/C=C\CCCCCCCC(=O)O`: “inactive [sample A] and active: 54.5 µM [sample B]”; `Oc1c(I)cc(Cl)c2cccnc12`: “inactive [sample A] and active: 24.3 µM [sample B]”; `CN1CCCCC1CCN1c2ccccc2Sc2ccc(S(C)=O)cc21` (centres undefined): “inactive [sample A] and active: 13.3 µM [sample B]”.
